# Data published in PubChem BioAssay (Tox21).
# Values joined by “and” are separate entries in the source; they are usually repeats but may differ in a detail not shown here. Equal values may be shown once. This list was built around the results that the source calls inconclusive (neither active nor inactive); the mix of calls is not that of the screen. For some of these results: Potencies of inconclusive entries are doubtful fits and often do not repeat. Some compounds were tested as several samples or in several runs, with calls that do not always agree. Active and inactive are the calls of the source. Unless noted, calls follow the shape of the dose curve; as a rule, active = well fitted curve in the direction sought with a large enough effect in the repeat runs; inconclusive = weak or mixed curves; inactive = no such curve, though single readings can be large; an effect the other way counts as inactive or inconclusive.
# How the values were obtained:
# [1] = biological target: Androgen receptor (Homo sapiens) (UniProt P10275); assay: qHTS assay to identify small molecule antagonists of the androgen receptor (AR) signaling pathway (AID 743035; active = well fitted inhibition curve with a large enough effect in the signal ratio in the repeat runs, not every such curve was filed as active; inconclusive = weak or mixed curves, or effect the other way; inactive = no such curve, though single readings can be large or run the other way; the % refers to the signal ratio; also: potency is read from the fitted curve at half-maximal effect; as to activity change, negative = inhibition: % is scaled to controls: 0 for no effect and ±100 for the full control effect); details: HEK293 AR-UAS-bla, R1881-stimulated, beta-lactamase FRET, 16 h; activity change, negative = inhibition: at 58.5 µM (top of the series) unless noted
# Summary of the method: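 In this cell-based reporter screen, compounds were tested in concentration series against R1881-activated HEK293 cells expressing beta-lactamase under UAS control; after 16 h at 37C, FRET substrate was added and fluorescence read 2 h later.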
# [2] = qHTS assay to identify small molecule antagonists of the thyroid receptor (TR) signaling pathway - cell viability counter screen (AID 743064); details: GH3.TRE-Luc viability, CellTiter-Fluor, 24 h; activity change, negative = cytotoxic: at 70.3 µM (top of the series); also: nearly all actives have a fitted effect of over 50% in size; also: potency is read from the fitted curve at half-maximal effect; as to activity change, negative = cytotoxic: % is scaled to controls: 0 for no effect and ±100 for the full control effect
# Summary of the method: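 Compounds were tested on GH3.TRE-Luc cells in the presence of T3 at 1 nM final. Following 23.5 h at 37 °C, cell viability was quantified by CellTiter-Fluor.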
# [3] = system: thyroid hormone receptor (rat, GH3 cells); assay: qHTS assay to identify small molecule agonists of the thyroid receptor (TR) signaling pathway (AID 743066; calls by dose curve; also: % is scaled to controls: 0 for no effect and ±100 for the full control effect); details: GH3.TRE-Luc cells, TR agonist luciferase, 24 h; activation: at 83.9 µM (top of the series) unless noted
# [4] = biological target: Estrogen receptor (Homo sapiens) (UniProt P03372); assay: qHTS assay to identify small molecule agonists of the estrogen receptor alpha (ER-alpha) signaling pathway (AID 743075; calls by dose curve; also: potency is read from the fitted curve at half-maximal effect; as to activation: % is scaled to controls: 0 for no effect and ±100 for the full control effect); details: HEK293 ER-alpha-UAS-bla, beta-lactamase FRET ratio, 18 h; activation: at 70.1 µM (top of the series)
# [5] = qHTS assay to identify small molecule antagonists of the estrogen receptor alpha (ER-alpha) signaling pathway using the BG1 cell line (AID 743080; calls by dose curve;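 also: BG1 cells stimulated with 17beta-estradiol alongside compound; nearly all actives have a fitted effect of over 25% in size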; also: potency is read from the fitted curve at half-maximal effect); details: BG1Luc4E2 ERE-luciferase antagonist mode, luminescence; activity change, negative = inhibition: at 70.3 µM (top of the series) unless noted
# Summary of the method: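 Endogenous full-length ER-alpha in BG1-Luc-4E2 cells drives a stably integrated 4×ERE luciferase gene; compounds were tested against 17beta-estradiol over 21.5 h, with luminescence and multiplexed viability fluorescence recorded.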
# [6] = biological target: Aryl hydrocarbon receptor (Homo sapiens) (UniProt P35869); assay: qHTS assay to identify small molecule that activate the aryl hydrocarbon receptor (AhR) signaling pathway (AID 743085); also: nearly all actives have a fitted effect of over 15% in size; also: potency is read from the fitted curve at half-maximal effect
# Summary of the method: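 24 h compound exposure, 37C, HepG2-derived HG2L7.5c1 cells with DRE-responsive luciferase. Readouts: fluorescence viability, then luminescence at room temperature after 30 min.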
# [7] = biological target: Peroxisome proliferator-activated receptor gamma (Homo sapiens) (UniProt P37231); assay: qHTS assay to identify small molecule antagonists of the peroxisome proliferator-activated receptor gamma (PPARg) signaling pathway (AID 743191; calls by dose curve; also: nearly all actives have a fitted effect of over 30% in size; also: potency is read from the fitted curve at half-maximal effect); details: HEK293H PPARg-UAS-bla, beta-lactamase ratio, antagonist, 17 h; ratio activity, negative = inhibition: at 62.6 µM (top of the series) unless noted
# Summary of the method: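 GeneBLAzer PPARg UAS-bla HEK293H cells, 5 h post-plating, exposed to compounds 17 h at 37C. LiveBLAzer B/G FRET substrate added for 1 h at room temperature; beta-lactamase reporter read by fluorescence intensity.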
# [8] = biological target: Androgen receptor (Homo sapiens) (UniProt P10275); assay: qHTS assay to identify small molecule agonists of the androgen receptor (AR) signaling pathway (AID 743036; active = well fitted activation curve with a large enough effect in the signal ratio in the repeat runs, with a control signal flat, not every such curve was filed as active; inconclusive = weak or mixed curves, or effect the other way; inactive = no such curve, though single readings can be large or run the other way; the % refers to the signal ratio; also: potency is read from the fitted curve at half-maximal effect); details: HEK293 AR-UAS-bla GripTite, beta-lactamase FRET ratio, 16 h; activation: at 62.4 µM (top of the series) unless noted
# Summary of the method: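 Beta-lactamase under UAS control, stably integrated in HEK293 GripTite cells, reports receptor activation. After 16 h compound treatment, cells received FRET substrate for 2 h at room temperature before fluorescence reading.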
# [9] = biological target: Estrogen receptor (Homo sapiens) (UniProt P03372); assay: qHTS assay to identify small molecule antagonists of the estrogen receptor alpha (ER-alpha) signaling pathway (AID 743069; active = well fitted curve in the direction sought with a large enough effect in the signal ratio in the repeat runs, not every such curve was filed as active; inconclusive = weak or mixed curves, or effect the other way; inactive = no such curve, though single readings can be large or run the other way; the % refers to the signal ratio; also: potency is read from the fitted curve at half-maximal effect); details: HEK293 ER-alpha-UAS-bla, beta-lactamase ratio, antagonist mode; activity, negative = inhibition: at 69.4 µM (top of the series)
# Summary of the method: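 In this cell-based reporter format, GripTite HEK293 cells harbouring ER-alpha-UAS-bla were grown overnight with 2% charcoal-stripped FBS, dosed with DMSO-dissolved compounds, then challenged with 17beta-estradiol. After 18 hr at 37C, beta-lactamase activity was detected by FRET fluorescence.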
# [10] = qHTS assay to identify small molecule antagonists of the estrogen receptor alpha (ER-alpha) signaling pathway - cell viability counter screen (AID 743074; calls by dose curve; also: potency is read from the fitted curve at half-maximal effect; nearly all actives have a fitted effect of over 45% in size)
# [11] = biological target: Estrogen receptor (Homo sapiens) (UniProt P03372); assay: qHTS assay to identify small molecule agonists of the estrogen receptor alpha (ER-alpha) signaling pathway using the BG1 cell line (AID 743079); details: BG1Luc4E2 cells, ERE-luciferase agonist, 22 h; activation: at 70.3 µM (top of the series) unless noted; also: nearly all actives have a fitted effect of over 20% in size; also: potency is read from the fitted curve at half-maximal effect
# [12] = qHTS assay to identify aromatase inhibitors - cell viability counter screen (AID 743084);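 also: cells stimulated with testosterone during compound exposure; potency is read from the fitted curve at half-maximal effect; nearly all actives have a fitted effect of over 55% in size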
# [13] = biological target: Peroxisome proliferator-activated receptor gamma (Homo sapiens) (UniProt P37231); assay: qHTS assay to identify small molecule agonists of the peroxisome proliferator-activated receptor gamma (PPARg) signaling pathway (AID 743094; active = well fitted activation curve with a large enough effect in the signal ratio in the repeat runs, not every such curve was filed as active; inconclusive = weak or mixed curves, or effect the other way; inactive = no such curve, though single readings can be large or run the other way; the % refers to the signal ratio; also: potency is read from the fitted curve at half-maximal effect); details: HEK293H PPARg-UAS-bla, beta-lactamase FRET ratio, 17 h; activation: at 57 µM (top of the series) unless noted
# Summary of the method: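 Cell-based bla reporter, HEK293H background, PPARg-driven UAS. Pre-incubation 5 h, 37C, 5% CO2. Compound 17 h, 37C. Substrate 1 h RT; fluorescence.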
# [14] = qHTS assay to identify small molecule antagonists of the androgen receptor (AR) signaling pathway using the MDA cell line - cell viability counter screen (AID 743041; also: nearly all actives have a fitted effect of over 45% in size; also: potency is read from the fitted curve at half-maximal effect); details: MDA-kb2 viability, CellTiter-Fluor, 16 h, cells co-treated with R1881 androgen agonist; viability change, negative = cytotoxic: at 70.3 µM (top of the series) unless noted
# Summary of the method: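 Compound exposure lasted 16 h at 37C in MDA-kb2 AR-luc cells stimulated with R1881. Protease-based CellTiter-Fluor reagent was applied for the final 30 min and fluorescence measured.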
# [15] = qHTS assay to identify small molecule antagonists of the estrogen receptor alpha (ER-alpha) signaling pathway using the BG1 cell line - cell viability counter screen (AID 743081);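 also: compound given together with 17beta-estradiol as the ER stimulus; potency is read from the fitted curve at half-maximal effect; nearly all actives have a fitted effect of over 45% in size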
# Aromatase (Homo sapiens) = Aromatase (Homo sapiens) (UniProt P11511); assay: qHTS assay to identify aromatase inhibitors (AID 743083); also: potency is read from the fitted curve at half-maximal effect; nearly all actives have a fitted effect of over 55% in size
# [16] = biological target: Androgen receptor (Homo sapiens) (UniProt P10275); assay: qHTS assay to identify small molecule antagonists of the androgen receptor (AR) signaling pathway using the MDA cell line (AID 743042; also: nearly all actives have a fitted effect of over 55% in size; also: potency is read from the fitted curve at half-maximal effect)
# Summary of the method: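 MDA-kb2 breast carcinoma cells carrying MMTV-luciferase (AR/GR responsive) were co-treated with compounds and the agonist R1881 for 16 h at 37C. Inhibition read as ONE-Glo luminescence; CellTiter-Fluor fluorescence measured in parallel for cytotoxicity.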
# [17] = qHTS assay to identify small molecule antagonists of the thyroid receptor (TR) signaling pathway (AID 743065); also: potency is read from the fitted curve at half-maximal effect; nearly all actives have a fitted effect of over 55% in size
# Summary of the method: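 GH3.TRE-Luc rat pituitary cells (two TREs driving luciferase) were dosed with compound, then stimulated with 1 nM T3 (final) for 23.5 h at 37 C. ONE-Glo luminescence was the read-out, with CellTiter-Fluor fluorescence as the cytotoxicity counter-screen.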
# [18] = qHTS assay to identify small molecule that activate the aryl hydrocarbon receptor (AhR) signaling pathway - cell viability counter screen (AID 743086); also: potency is read from the fitted curve at half-maximal effect; nearly all actives have a fitted effect of over 45% in size
# Summary of the method: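 HepG2-AhR-luc (HG2L7.5c1) cells, 4000/well, treated 24 h at 37 C with compound; viability measured as CellTiter-Fluor fluorescence after 30 min in the same wells as the luciferase read.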
# Tags tell the direction and shape of the fitted curve or compound fluorescence and quenching.
# UniProt P10275, sequence (P10275 whole entry, looked up): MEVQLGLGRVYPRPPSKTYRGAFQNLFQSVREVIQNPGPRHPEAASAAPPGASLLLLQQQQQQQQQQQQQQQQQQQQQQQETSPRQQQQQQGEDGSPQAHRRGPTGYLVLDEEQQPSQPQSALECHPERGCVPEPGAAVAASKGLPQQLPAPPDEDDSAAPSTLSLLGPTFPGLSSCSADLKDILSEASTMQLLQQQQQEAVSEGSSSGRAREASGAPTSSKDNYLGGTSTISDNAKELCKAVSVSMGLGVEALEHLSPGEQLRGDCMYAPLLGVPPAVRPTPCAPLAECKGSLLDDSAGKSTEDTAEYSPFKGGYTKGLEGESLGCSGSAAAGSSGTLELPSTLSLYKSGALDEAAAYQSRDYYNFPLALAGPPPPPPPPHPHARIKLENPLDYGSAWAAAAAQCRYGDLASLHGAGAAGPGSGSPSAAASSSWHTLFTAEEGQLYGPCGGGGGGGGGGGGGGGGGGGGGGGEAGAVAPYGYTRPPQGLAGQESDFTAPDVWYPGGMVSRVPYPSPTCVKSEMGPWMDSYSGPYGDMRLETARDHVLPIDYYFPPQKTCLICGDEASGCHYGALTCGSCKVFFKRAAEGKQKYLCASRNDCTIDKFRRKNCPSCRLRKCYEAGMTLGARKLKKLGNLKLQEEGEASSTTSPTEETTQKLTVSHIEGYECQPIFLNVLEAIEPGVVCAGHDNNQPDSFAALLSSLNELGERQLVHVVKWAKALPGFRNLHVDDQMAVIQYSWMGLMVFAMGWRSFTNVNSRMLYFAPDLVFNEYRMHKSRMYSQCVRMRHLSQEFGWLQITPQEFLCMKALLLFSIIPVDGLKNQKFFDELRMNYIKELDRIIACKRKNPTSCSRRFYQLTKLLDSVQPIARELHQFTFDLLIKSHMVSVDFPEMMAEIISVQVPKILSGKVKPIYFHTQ
# UniProt P03372, sequence (P03372 whole entry, looked up): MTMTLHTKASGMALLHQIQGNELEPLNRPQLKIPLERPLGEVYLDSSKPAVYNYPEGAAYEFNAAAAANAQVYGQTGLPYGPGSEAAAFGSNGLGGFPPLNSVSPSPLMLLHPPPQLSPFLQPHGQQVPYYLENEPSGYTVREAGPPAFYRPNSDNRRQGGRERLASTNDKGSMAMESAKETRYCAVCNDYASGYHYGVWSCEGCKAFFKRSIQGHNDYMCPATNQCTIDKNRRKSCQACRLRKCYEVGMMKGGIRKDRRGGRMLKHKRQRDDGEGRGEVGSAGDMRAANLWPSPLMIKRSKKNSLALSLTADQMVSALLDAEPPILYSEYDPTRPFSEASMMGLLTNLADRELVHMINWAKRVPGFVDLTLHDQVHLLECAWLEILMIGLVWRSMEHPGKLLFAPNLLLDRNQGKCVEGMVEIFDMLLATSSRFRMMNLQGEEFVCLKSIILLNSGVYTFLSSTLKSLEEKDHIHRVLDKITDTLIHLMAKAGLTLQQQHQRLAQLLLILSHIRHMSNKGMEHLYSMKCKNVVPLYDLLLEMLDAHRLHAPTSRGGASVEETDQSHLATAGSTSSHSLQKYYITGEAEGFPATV
# UniProt P11511, sequence (P11511 whole entry, looked up): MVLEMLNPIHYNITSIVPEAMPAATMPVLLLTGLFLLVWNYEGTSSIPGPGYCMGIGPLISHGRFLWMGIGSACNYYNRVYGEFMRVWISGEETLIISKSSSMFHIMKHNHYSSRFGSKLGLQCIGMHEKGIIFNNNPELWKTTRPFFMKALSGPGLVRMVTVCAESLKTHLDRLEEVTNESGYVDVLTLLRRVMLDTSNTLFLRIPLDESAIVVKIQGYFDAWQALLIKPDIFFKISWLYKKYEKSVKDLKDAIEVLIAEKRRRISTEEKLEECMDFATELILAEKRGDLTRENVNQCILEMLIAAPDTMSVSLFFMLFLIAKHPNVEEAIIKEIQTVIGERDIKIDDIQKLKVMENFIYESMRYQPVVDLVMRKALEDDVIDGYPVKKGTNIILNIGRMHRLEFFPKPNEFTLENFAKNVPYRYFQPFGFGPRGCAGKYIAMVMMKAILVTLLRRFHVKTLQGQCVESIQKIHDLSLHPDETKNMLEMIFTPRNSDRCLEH
# UniProt P37231, sequence (P37231 whole entry, looked up): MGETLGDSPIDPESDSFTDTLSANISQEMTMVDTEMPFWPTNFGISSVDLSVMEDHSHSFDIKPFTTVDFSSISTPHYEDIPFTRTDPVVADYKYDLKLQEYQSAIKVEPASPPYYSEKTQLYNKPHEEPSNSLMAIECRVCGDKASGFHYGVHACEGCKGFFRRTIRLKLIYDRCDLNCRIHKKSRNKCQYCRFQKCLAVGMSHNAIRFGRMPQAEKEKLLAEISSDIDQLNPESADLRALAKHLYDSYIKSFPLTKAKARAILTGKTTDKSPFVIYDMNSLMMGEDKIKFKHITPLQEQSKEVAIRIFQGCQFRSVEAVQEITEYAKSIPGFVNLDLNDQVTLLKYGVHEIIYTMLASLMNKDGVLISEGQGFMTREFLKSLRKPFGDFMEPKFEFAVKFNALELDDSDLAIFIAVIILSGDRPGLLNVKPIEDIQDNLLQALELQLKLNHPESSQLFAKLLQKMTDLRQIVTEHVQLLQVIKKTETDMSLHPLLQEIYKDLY
# UniProt P35869, sequence (P35869 whole entry, looked up): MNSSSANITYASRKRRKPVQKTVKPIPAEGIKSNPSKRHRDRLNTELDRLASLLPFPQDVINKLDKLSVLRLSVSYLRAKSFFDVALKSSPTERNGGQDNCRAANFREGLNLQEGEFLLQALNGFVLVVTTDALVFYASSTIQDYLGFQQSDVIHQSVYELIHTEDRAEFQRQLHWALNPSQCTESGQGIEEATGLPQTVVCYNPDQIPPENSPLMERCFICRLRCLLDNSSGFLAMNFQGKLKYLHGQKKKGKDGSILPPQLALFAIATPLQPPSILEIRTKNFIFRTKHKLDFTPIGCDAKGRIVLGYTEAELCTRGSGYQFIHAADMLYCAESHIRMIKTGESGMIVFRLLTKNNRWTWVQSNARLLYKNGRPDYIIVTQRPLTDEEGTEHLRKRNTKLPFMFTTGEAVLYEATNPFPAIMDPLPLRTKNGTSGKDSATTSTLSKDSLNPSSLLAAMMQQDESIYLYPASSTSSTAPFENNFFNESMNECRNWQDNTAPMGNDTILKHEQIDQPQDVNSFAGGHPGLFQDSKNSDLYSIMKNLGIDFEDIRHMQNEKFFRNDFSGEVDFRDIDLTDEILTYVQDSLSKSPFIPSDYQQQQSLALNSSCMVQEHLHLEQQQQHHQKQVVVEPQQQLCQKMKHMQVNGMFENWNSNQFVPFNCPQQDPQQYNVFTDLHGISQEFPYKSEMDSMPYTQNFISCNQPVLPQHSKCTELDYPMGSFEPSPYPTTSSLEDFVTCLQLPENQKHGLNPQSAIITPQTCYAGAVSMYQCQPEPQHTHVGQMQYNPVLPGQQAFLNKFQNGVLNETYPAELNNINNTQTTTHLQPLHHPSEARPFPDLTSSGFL
smiles,measurement,setting,value
O=C(O)c1ccc2[nH]cc(CCCCN3CC=C(c4ccccc4)CC3)c2c1,Potency,[1],inactive
same,Potency,[2],inactive
same,Potency,[3],inactive
same,Potency,[4],inactive
same,Potency,[5],inactive
same,Potency,[6],inactive
same,"ratio activity, negative = inhibition",[7],inconclusive: -10.9%
CCC(=O)O[C@H]1CC[C@H]2[C@@H]3CCC4=CC(=O)CC[C@]4(C)[C@H]3CC[C@]12C,Potency,[8],inconclusive: 3.2 nM and active: 3.9 nM
same,Potency,[9],"inconclusive: 2.88 µM [activator, full curve] and inconclusive: 54.9 µM [fluorescent, single point]"
same,Potency,[10],"inconclusive: 54.9 µM [cytotoxic, single point]"
same,Potency,[11],active: 22.7 nM and active: 34.4 nM
same,Potency,[12],"inconclusive: 77 µM [cytotoxic, partial curve, poor fit]"
same,Potency,[13],inconclusive: 54.9 µM
same,Potency,[7],"inconclusive: 49 µM [rising, single point]"
same,"ratio activity, negative = inhibition",[7],inconclusive: 1.32%
CC1(C)[C@H](C(=O)O[C@H](C#N)c2cccc(Oc3ccccc3)c2)[C@@H]1C=C(Br)Br,"activity change, negative = inhibition",[1],inconclusive: -21.3%
same,Potency,[10],"inconclusive: 25.5 µM [cytotoxic, partial curve, poor fit] and inconclusive: 1.38 µM [cytotoxic, full curve, poor fit]"
same,Potency,[12],"inconclusive: 0.969 µM [rising, full curve, poor fit]"
CCOC(=O)C(O)(c1ccc(Cl)cc1)c1ccc(Cl)cc1,Potency,[8],"inconclusive: 55.5 µM [cytotoxic, partial curve] and inactive"
same,Potency,[14],"active: 61.8 µM and inconclusive: 68.6 µM [cytotoxic, single point]"
same,Potency,[2],"inconclusive: 68.6 µM [cytotoxic, single point]"
same,activation,[3],inconclusive: -9.85% [phenotype inactive]
same,Potency,[9],active: 55.5 µM [cytotoxic] and active: 54.9 µM [inhibitor]
same,Potency,[10],active: 24.8 µM
same,Potency,[4],"inconclusive: 55.5 µM [cytotoxic, partial curve]"
same,Potency,[11],"inconclusive: 30.9 µM [inhibitor, partial curve] and inconclusive: 61.1 µM [inhibitor, single point]"
same,Potency,[15],"inconclusive: 69.3 µM [cytotoxic, single point]"
same,Potency,Aromatase (Homo sapiens),active: 4.37 µM and active: 30.6 µM
same,Potency,[12],"inconclusive: 43.3 µM [cytotoxic, partial curve]"
same,Potency,[13],"inconclusive: 31.2 µM [falling, partial curve]"
same,Potency,[7],"inconclusive: 39.3 µM [cytotoxic, partial curve, poor fit] and inconclusive: 38.9 µM [fluorescent, partial curve]"
c1cc2c(c(N3CCNCC3)c1)OCCO2,Potency,[8],inactive
same,Potency,[14],inactive
same,Potency,[2],inactive
c1cc[c]([Hg][c]2ccccc2)cc1,Potency,[1],active: 43.6 µM
same,Potency,[2],"inconclusive: 8.63 µM [cytotoxic, partial curve, poor fit]"
same,activation,[11],inconclusive: 15.2% [phenotype inactive]
same,Potency,[5],"inconclusive: 8.63 µM [rising, partial curve]"
same,Potency,[6],"inconclusive: 19.3 µM [activator, full curve, poor fit]"
same,"ratio activity, negative = inhibition",[7],inconclusive: 6.24%
CCCCCCCCc1ccc(O)cc1,Potency,[14],"inconclusive: 27.5 µM [rising, single point]"
same,Potency,[16],inactive
same,Potency,[10],"inconclusive: 3.11 µM [rising, full curve, poor fit]"
same,Potency,[12],active: 21.8 µM
C=C(C)[C@H]1Cc2c(ccc3c2O[C@@H]2COc4cc(OC)c(OC)cc4[C@@H]2C3=O)O1,activation,[8],inconclusive: 8.84%
same,Potency,[16],active: 188 nM and active: 24.7 nM and active: 9.7 nM
same,Potency,[17],active: 237 nM and active: 34.8 nM and active: 61.1 nM
same,activation,[3],inconclusive: -7.86% [phenotype inactive] and inconclusive: -8.03% [phenotype inactive]
same,Potency,[10],"active: 67.4 nM and active: 44.2 nM and inconclusive: 27.5 nM [cytotoxic, full curve, poor fit]"
same,Potency,[15],"inconclusive: 1.68 µM [cytotoxic, partial curve] and active: 7.8 µM and active: 38.6 µM"
same,Potency,Aromatase (Homo sapiens),active: 15 µM and active: 34.8 µM and active: 34.4 µM
same,Potency,[12],"inconclusive: 26.6 µM [cytotoxic, partial curve]"
same,Potency,[18],active: 39.1 µM and active: 21.7 µM
same,activation,[13],inconclusive: -14.8% and inconclusive: 4.87%
C=Cc1cccc(CCl)c1,Potency,[14],inactive
